Measured values: a collection of fitness landscapes (doi:10.1126/science.1257360)
This is one part of the list.

B1: PhoQ; a variant is named by its letters at X, in order, P23837 (parent)
chain: MKKLLRLFFPLSLRVRFLLATAAVVLVLSLAYGMVALIGYSVSFDKTTFRLLRGESNLFYTLAKWENNKLHVELPENIDKQSPTMTLIYDENGQLLWAQRDVPWLMKMIQPDWLKSNGFHEIEADVNDTSLLLSGDHSIQQQLQEVREDDDDAEMTHSVAVNVYPATSRMPKLTIVVVDTIPVELKSSYMVWSWFIYVLSANLLLVIPLLWVAAWWSLRPIEALAKEVRELEEHNRELLNPATTRELTSLVRNLNRLLKSERERYDKYRTTLTDLTHSLKTPLXXLQXXLRSLRSEKMSVSDAEPVMLEQISRISQQIGYYLHRASMRGGTLLSRELHPVAPLLDNLTSALNKVYQRKGVNISLDISPEISFVGEQNDFVEVMGNVLDNACKYCLEFVEISARQTDEHLYIVVEDDGPGIPLSKREVIFDRGQRVDTLRPGQGVGLAVAREITEQYEGKIVAGESMLGGARMEVIFGRQHSAPKDE

Variants of: B1
Test: enrichment ratio after two sorts for PhoP signalling (ratio (wild type AVST 3.29)); higher = more functional
Conditions: with PhoP (E. coli)

Variant	enrichment ratio
FIRR	≤ 0.25
SWLS	≤ 0.25
TWVR	≤ 0.25
IMCT	≤ 0.25
TCEP	≤ 0.25
GASS	≤ 0.25
DNRS	≤ 0.25
PTMK	≤ 0.25
IKQK	≤ 0.25
LDSR	≤ 0.25
TQIM	17.9
TPMK	≤ 0.25
KKLD	≤ 0.25
ESSH	≤ 0.25
VHEE	≤ 0.25
MGQR	≤ 0.25
AEHV	≤ 0.25
SECY	13.7
RLGF	≤ 0.25
TWDF	≤ 0.25
QQTL	≤ 0.25
KIEH	≤ 0.25
FTTC	≤ 0.25
DYLQ	≤ 0.25
SCRL	≤ 0.25
WETA	≤ 0.25

Variant	enrichment ratio
FDHS	≤ 0.25
EHPD	≤ 0.25
TWVC	≤ 0.25
SSDC	≤ 0.25
RPDV	≤ 0.25
LGHM	4.31
TYGC	3.63
NNCV	≤ 0.25
NYMV	≤ 0.25
RKVI	≤ 0.25
PSKL	≤ 0.25
TKVE	≤ 0.25
GMFY	≤ 0.25
KGPT	≤ 0.25
EPDV	≤ 0.25
DAHF	≤ 0.25
TPVG	≤ 0.25
MYCC	≤ 0.25
PADL	≤ 0.25
PHDN	≤ 0.25
VQYD	≤ 0.25
GSLL	14.1
QPHH	≤ 0.25
LYRQ	≤ 0.25
VQLK	≤ 0.25
RHYE	≤ 0.25

Variant	enrichment ratio
NQVP	≤ 0.25
NFME	≤ 0.25
RVKE	≤ 0.25
VDSI	≤ 0.25
EGYK	≤ 0.25
YVRA	≤ 0.25
IRYF	≤ 0.25
RYWN	≤ 0.25
HQTR	≤ 0.25
PERR	≤ 0.25
HNST	≤ 0.25
SYIC	0.411
LYTP	≤ 0.25
WRNF	≤ 0.25
KPRQ	≤ 0.25
PQTF	≤ 0.25
LEKL	≤ 0.25
YSTY	≤ 0.25
IEIT	≤ 0.25
LWLE	≤ 0.25
MLRG	≤ 0.25
KQFN	≤ 0.25
RGWR	≤ 0.25
MPNH	≤ 0.25
GVKV	≤ 0.25
RYYN	≤ 0.25

Variant	enrichment ratio
NQFR	≤ 0.25
ERAI	≤ 0.25
NKAL	≤ 0.25
AHMN	≤ 0.25
PVKD	≤ 0.25
ILKW	≤ 0.25
SYSN	≤ 0.25
AEQR	≤ 0.25
WWRM	≤ 0.25
RFWY	≤ 0.25
ANLM	13.3
QSYI	7.28
TFHW	≤ 0.25
AYRV	≤ 0.25
PEAA	≤ 0.25
NSLG	0.537
WNDE	≤ 0.25
RMDW	≤ 0.25
SNLV	15.8
QRSY	≤ 0.25
RNDC	≤ 0.25
GQLL	7.89
ERIT	≤ 0.25
QEEH	≤ 0.25
IVFR	≤ 0.25
FELR	≤ 0.25

Variant	enrichment ratio
IYRF	≤ 0.25
KTKN	≤ 0.25
GFNS	≤ 0.25
FTRK	≤ 0.25
AITQ	1.78
IIHL	≤ 0.25
WIHR	≤ 0.25
VGKQ	≤ 0.25
TVDT	≤ 0.25
LGDR	≤ 0.25
NRTI	≤ 0.25
EESR	≤ 0.25
LFGL	≤ 0.25
AHFF	≤ 0.25
YQHP	≤ 0.25
ARLY	1.16
AQSK	≤ 0.25
GGWY	≤ 0.25
IYDP	≤ 0.25
GSEY	≤ 0.25
SHCN	13.2
WNYD	≤ 0.25
WEFF	≤ 0.25
YVIK	≤ 0.25
TGGD	≤ 0.25
HTMG	≤ 0.25

Variant	enrichment ratio
RHLR	≤ 0.25
WTSH	≤ 0.25
ENVY	≤ 0.25
GNCK	≤ 0.25
AFHQ	≤ 0.25
YPWW	≤ 0.25
RIFW	≤ 0.25
TIYT	2.66
FHAT	≤ 0.25
MFYL	≤ 0.25
THQN	≤ 0.25
HEEH	≤ 0.25
RITN	≤ 0.25
YQHS	≤ 0.25
EKTH	≤ 0.25
GCQL	≤ 0.25
KCGY	≤ 0.25
HYVR	≤ 0.25
KSYI	≤ 0.25
HWDV	≤ 0.25
NVRS	≤ 0.25
VCVI	≤ 0.25
WTHK	≤ 0.25
